This is one part of the list. Many values rest on one well or one pass, so single values are uncertain.
tested on: A375; experiment: cell count relative to DMSO control; melanoma cells; higher = more viable cells; conditions: library dose: standard library concentration; 72 h
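Note: cells treated in 1,536-well plates, then fixed and DAPI-stained, with nuclei counted from automated high-throughput microscope images.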

| Structure (SMILES) | cell count |
| --- | --- |
| NC1(c2ccc(-c3nc4ccn5c(=O)[nH]nc5c4cc3-c3ccccc3)cc2)CCC1 + C[C@@H]1CCN(C(=O)CC#N)C[C@@H]1N(C)c1ncnc2[nH]ccc12 [CP690550] (first compound 2 µM, partner dose 5 µM) | 118% |
| CCCS(=O)(=O)Nc1ccc(F)c(C(=O)c2c[nH]c3ncc(Cl)cc23)c1F + COc1ccc(Cl)c(Nc2nc3ccccc3nc2NS(=O)(=O)c2cccc(NC(=O)C(C)(C)N)c2)c1 [XL147] (first compound 0.4 µM, partner dose 4 µM) | 109% |
| CCCS(=O)(=O)Nc1ccc(F)c(C(=O)c2c[nH]c3ncc(Cl)cc23)c1F + CC(=O)c1c(C)c2cnc(Nc3ccc(N4CCNCC4)cn3)nc2n(C2CCCC2)c1=O [palbociclib] (first compound 0.4 µM, partner dose 0.2 µM) | 68.9% |
| CCCS(=O)(=O)Nc1ccc(F)c(C(=O)c2c[nH]c3ncc(Cl)cc23)c1F + C#Cc1cccc(Nc2ncnc3cc(OCCOC)c(OCCOC)cc23)c1 [erlotinib] (first compound 0.4 µM, partner dose 4 µM) | 101% |
| C=C(c1ccc(C(=O)O)cc1)c1cc2c(cc1C)C(C)(C)CCC2(C)C [Bexarotene] + Cc1cc(N2CCOCC2)cc2[nH]c(-c3c(NC[C@@H](O)c4cccc(Cl)c4)cc[nH]c3=O)nc12 [BMS536924] (first compound 10 µM, partner dose 1 µM) | 95.6% |
| CS(=O)(=O)c1ccc(C(=O)Nc2ccc(Cl)c(-c3ccccn3)c2)c(Cl)c1 [vismodegib] + CCCS(=O)(=O)Nc1ccc(F)c(C(=O)c2c[nH]c3ncc(Cl)cc23)c1F [PLX4720] (first compound 5 µM, partner dose 0.4 µM) | 91.3% |
| CCCS(=O)(=O)Nc1ccc(F)c(C(=O)c2c[nH]c3ncc(Cl)cc23)c1F + COc1cc2c(Oc3ccc4[nH]c(C)cc4c3F)ncnc2cc1OCCCN1CCCC1 [cediranib] (first compound 0.4 µM, partner dose 2 µM) | 81.2% |
| CS(=O)(=O)c1ccc(C(=O)Nc2ccc(Cl)c(-c3ccccn3)c2)c(Cl)c1 [vismodegib] + COc1cc(Nc2ncc(F)c(Nc3ccc4c(n3)NC(=O)C(C)(C)O4)n2)cc(OC)c1OC [Tamatinib] (first compound 5 µM, partner dose 2 µM) | 108% |
| C=C(c1ccc(C(=O)O)cc1)c1cc2c(cc1C)C(C)(C)CCC2(C)C [Bexarotene] + NCC(=O)Nc1ccc(-n2nc(C(F)(F)F)cc2-c2ccc3c(ccc4ccccc43)c2)cc1 [OSU03012] (first compound 10 µM, partner dose 5 µM) | 40.8% |
| CN(c1ncccc1CNc1nc(Nc2ccc3c(c2)CC(=O)N3)ncc1C(F)(F)F)S(C)(=O)=O + Cn1c(=O)n(-c2ccc(C(C)(C)C#N)cc2)c2c3cc(-c4cnc5ccccc5c4)ccc3ncc21 [NVP-BEZ235] (first compound 0.4 µM, partner dose 0.02 µM) | 62.7% |
| CN(c1ncccc1CNc1nc(Nc2ccc3c(c2)CC(=O)N3)ncc1C(F)(F)F)S(C)(=O)=O + OCCn1cc(-c2cnc3nnn(Cc4ccc5ncccc5c4)c3n2)cn1 [PF04217903] (first compound 0.4 µM, partner dose 5 µM) | 60.4% |
| CS(=O)(=O)c1ccc(C(=O)Nc2ccc(Cl)c(-c3ccccn3)c2)c(Cl)c1 [vismodegib] + O=C(Nc1cccc(Cl)c1)Nc1ncc(CCNc2ncnc3ccsc23)s1 [SNS314] (first compound 5 µM, partner dose 0.004 µM) | 105% |
| CN(c1ncccc1CNc1nc(Nc2ccc3c(c2)CC(=O)N3)ncc1C(F)(F)F)S(C)(=O)=O + C=C(c1ccc(C(=O)O)cc1)c1cc2c(cc1C)C(C)(C)CCC2(C)C [Bexarotene] (first compound 0.4 µM, partner dose 10 µM) | 78.2% |
| NC1(c2ccc(-c3nc4ccn5c(=O)[nH]nc5c4cc3-c3ccccc3)cc2)CCC1 + Nc1nc(F)nc2c1ncn2[C@@H]1O[C@H](CO)[C@@H](O)[C@@H]1O [fludarabine] (first compound 2 µM, partner dose 1 µM) | 27.6% |
| NC1(c2ccc(-c3nc4ccn5c(=O)[nH]nc5c4cc3-c3ccccc3)cc2)CCC1 + CS(=O)(=O)CCNCc1ccc(-c2ccc3ncnc(Nc4ccc(OCc5cccc(F)c5)c(Cl)c4)c3c2)o1 [lapatinib] (first compound 2 µM, partner dose 4 µM) | 121% |

Reference: the supplement of paper PMC4604168 (melanoma cell lines)
